According to PubChem BioAssay AID1768 (National Center for Advancing Translational Sciences (NCATS), 2009):
Screen size: about 270,000 compounds; about 620 (0.23%) were called active. Inconclusive results, whose numbers are uncertain, are shown with a selection of clear calls. Calls come from the whole dose curve; as a rule, active = well fitted inhibition curve with a large enough effect in the polarisation, with a control signal flat (not every such curve was filed as active); inconclusive = small, poorly fitted or top-dose-only effect, or effect the other way, or a change in a side signal; inactive = no such curve, though single readings can be large or run the other way; the % refers to the polarisation. Where the call is inconclusive, the potency comes from a doubtful curve fit. A note “side channel” means that the fit belongs to a control or component signal, not to the main read-out.

Biological target: Menin (Homo sapiens) (UniProt O00255)
Sequence of UniProt O00255 (O00255 whole entry, looked up): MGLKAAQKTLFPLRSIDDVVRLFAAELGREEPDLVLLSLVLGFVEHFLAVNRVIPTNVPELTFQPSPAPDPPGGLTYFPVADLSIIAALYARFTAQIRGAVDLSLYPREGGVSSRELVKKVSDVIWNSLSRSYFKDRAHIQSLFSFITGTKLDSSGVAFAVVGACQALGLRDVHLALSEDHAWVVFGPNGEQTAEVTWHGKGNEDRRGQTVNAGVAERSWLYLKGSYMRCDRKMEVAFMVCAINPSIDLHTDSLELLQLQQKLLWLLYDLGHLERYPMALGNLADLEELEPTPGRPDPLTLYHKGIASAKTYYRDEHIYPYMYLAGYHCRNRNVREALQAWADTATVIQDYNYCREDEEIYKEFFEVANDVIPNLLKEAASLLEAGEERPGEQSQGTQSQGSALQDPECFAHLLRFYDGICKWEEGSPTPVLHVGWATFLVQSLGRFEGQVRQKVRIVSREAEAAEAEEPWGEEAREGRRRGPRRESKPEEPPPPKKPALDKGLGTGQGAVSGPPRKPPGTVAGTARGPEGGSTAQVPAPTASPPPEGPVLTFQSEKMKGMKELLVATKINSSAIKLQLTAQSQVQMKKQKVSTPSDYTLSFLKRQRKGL
Assay: qHTS Assay for Inhibitors Targeting the Menin-MLL Interaction in MLL Related Leukemias: Competition With Texas Red Labeled MLL-derived Mutant Peptide; for FP activity change, negative = inhibition: % of control where 0% means no effect
Details: fluorescence polarization; FP activity change, negative = inhibition: at 61.6 µM (top of the series)
Potency is the fitted concentration of half-maximal effect; tags give direction and shape of the fitted curve or compound fluorescence and quenching.

Potency, inconclusive:
Cc1ccc(C(=O)COc2ccc3c(C)cc(=O)oc3c2)cc1 11.2 µM [inhibitor, partial curve, poor fit], CCCN(CCC)c1ccc(C(O)c2nnc(-c3ccccc3)o2)cc1 (stereo not drawn) 4.47 µM [fluorescent, side channel, full curve, poor fit], Cc1ccccc1NC(=O)c1cc(N)ccc1N1CCCCC1 12.6 µM [inhibitor, partial curve], COc1cccc(C2C(C#N)=C(N)OC3=C2C(=O)CC(c2ccco2)C3)c1OCc1ccc(F)cc1 (stereo not drawn) 14.1 µM [inhibitor, partial curve], O=C(NCc1ccco1)c1nc2c(nnn2Cc2cccc(Cl)c2)c(=O)[nH]1 7.94 µM [inhibitor, single point], Cc1ccc2sc(N(CCCN(C)C)C(=O)CCS(=O)(=O)c3ccccc3)nc2c1C 35.5 µM [fluorescent, side channel, single point], CC(C)c1ccc(CN2CCC(Oc3ccc(C(=O)N4CCCC4)cc3)CC2)cc1 3.55 µM [inhibitor, full curve, poor fit], COc1ccc(NC(=O)CSc2nc(O)cc(=O)n2-c2ccccc2OC)cc1 39.8 µM [inhibitor, single point], O=S1(=O)c2ccccc2N=NN1Cc1ccc(Cl)cc1 22.4 µM [quencher, side channel, partial curve], Cc1cc(C)c2c(CN3CCN(Cc4ccccc4)CC3)cc(=O)oc2c1C 12.6 µM [fluorescent, side channel, partial curve], Cc1ccc(N=C2NC(=O)c3cccc([N+](=O)[O-])c32)cc1 39.8 µM [inhibitor, single point], Cc1nn(-c2ccc(Cl)cc2)c(N)c1C(O)(CSc1nccn1C)C(F)(F)F (stereo not drawn) 22.4 µM [quencher, side channel, partial curve], CCN(CC)c1ccc(NC(=O)c2[nH]c(C)c(C(C)=O)c2C)c(C)c1 0.708 µM [inhibitor, full curve, poor fit], C/C(=C\C(=S)Nc1ccccc1)Nc1cccc2ccccc12 25.1 µM [quencher, side channel, partial curve], COc1ccc(-c2csc(C3=C(O)CN(C(C)C)C3=N)n2)cc1OC 20 µM [quencher, side channel, partial curve], CC1(C)Oc2ccc3ccc(=O)oc3c2/C(=C/Nc2ccc(O)cc2)C1=O 28.2 µM [quencher, side channel, partial curve], Cc1[nH]n(-c2ccccc2)c(=O)c1C(c1cccc([N+](=O)[O-])c1)c1c(C)[nH]n(-c2ccccc2)c1=O 25.1 µM [quencher, side channel, single point], O=C(CSc1nc2ccccc2s1)NNC(=O)Nc1ccc(Cl)c(Cl)c1 39.8 µM [inhibitor, single point], Cc1cc(C)cc(N(CC(=O)NCc2ccc3c(c2)OCO3)C(=O)CCC(=O)Nc2ccccn2)c1 10 µM [fluorescent, side channel, partial curve], CCN(CC)c1ccc2c(c1)OC(N)=C(C#N)C2c1cccnc1 (stereo not drawn) 25.1 µM [fluorescent, side channel, partial curve], COc1ccccc1N1CC(C(=O)OCC(=O)Nc2c(C)cccc2C)CC1=O (stereo not drawn) 28.2 µM [inhibitor, single point], CN(/C(=N\S(=O)(=O)c1ccccc1)C(F)(F)F)c1ccccc1 0.708 µM [inhibitor, full curve, poor fit], C/C(=N\NC(=O)c1cc(-c2ccco2)nc2ccccc12)c1cccnc1 39.8 µM [quencher, side channel, single point], Cc1ccccc1NS(=O)(=O)c1cc(C(=O)Nc2cccc([N+](=O)[O-])c2)ccc1C 11.2 µM [quencher, side channel, partial curve], COc1cc(/C=C2/C(=O)NN(c3ccc(F)cc3)C2=O)cc(Cl)c1O 31.6 µM [quencher, side channel, single point], Cn1c(Cl)c(C(=O)Nc2ccc(Cl)cc2)c2ccccc21 14.1 µM [quencher, side channel, partial curve], CCCc1cc(C(N)=O)c(NC(C)=O)s1 3.16 µM [inhibitor, single point], Cc1ccc(CN2CCN(/N=C/C=C/c3ccccc3[N+](=O)[O-])CC2)cc1 0.708 µM [inhibitor, full curve, poor fit], Cc1cccc(CC(C)NC(=O)c2cc(COc3ccc(C)c(C)c3)on2)n1 (stereo not drawn) 11.2 µM [fluorescent, side channel, partial curve], COc1ccc(-c2cc(-n3c(C(F)(F)F)nc4ccccc43)n(CCC#N)n2)cc1 3.55 µM [inhibitor, partial curve], CN(C)c1nc(N/N=C/c2ccccc2O)nc(Nc2ccc(F)cc2)n1 5.62 µM [quencher, side channel, partial curve]

FP activity change, negative = inhibition, inactive:
Cc1sc(NC(=S)NC(=O)CCc2ccccc2)c(C(N)=O)c1C -1.82%, O=C(N/N=C/c1ccc(O)cc1)NC12CC3CC(CC(C3)C1)C2 41%, COc1ccc(NC(=O)c2ccc(C(=O)Nc3ccc(OC)cc3OC)cc2)c(OC)c1 4.99%, Cc1ccc(C)c2[nH]c(=O)c(C(c3nnnn3C3CCCC3)N3CCOCC3)cc12 (stereo not drawn) -8.67%, COc1cc(-c2cn[nH]c2N)cc(OC)c1OC -0.444%, CC(C)Cn1nnnc1S(=O)(=O)Cc1ccccc1 -13.2%, COCCN1C=C(C(=O)OC)C(c2cc(Br)c(OC)c(OC)c2)C(C(=O)OC)=C1 -4.1%
